The supplement of paper PMC8728848
The list shows a part of the results.

What was measured:
Experiment in all cases: glycan array binding signal (z-score within array); higher = stronger binding
Settings in all cases: glycan notation: IUPAC condensed, linker removed
GalNAc(b1-3)GalNAc = target: GalNAc(b1-3)GalNAc
Procedure, shortened: (§1)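 Glycan array data were curated from 3228 arrays in the Consortium for Functional Glycomics database and kept only where the protein sequence was available. Glycan names were converted to IUPAC-condensed notation, and columns mapping to the same glycan were averaged. The binding signal is a within-array Z-score, averaged across arrays of the same protein sequence at different concentrations or buffers and across linkers. Negative Z-scores can be read as non-binding.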

GalNAc(b1-4)GlcNAc = target: GalNAc(b1-4)GlcNAc
Procedure, shortened: as §1

[1] = target: GalNAc(b1-4)GlcNAc(b1-2)Man(a1-3)[GalNAc(b1-4)GlcNAc(b1-2)Man(a1-6)]Man(b1-4)GlcNAc(b1-4)GlcNAc
Procedure, shortened: as §1

GalNAc(b1-6)GalNAc = target: GalNAc(b1-6)GalNAc
Procedure, shortened: as §1

Glc(a1-4)Glc = target: Glc(a1-4)Glc
Procedure, shortened: as §1

Glc(a1-6)Glc(a1-6)Glc = target: Glc(a1-6)Glc(a1-6)Glc
Procedure, shortened: as §1

Glc(b1-4)Glc = target: Glc(b1-4)Glc
Procedure, shortened: as §1

Glc(b1-6)Glc = target: Glc(b1-6)Glc
Procedure, shortened: as §1

GlcA(b1-3)Gal = target: GlcA(b1-3)Gal
Procedure, shortened: as §1

GlcA(b1-3)GlcNAc = target: GlcA(b1-3)GlcNAc
Procedure, shortened: as §1

GlcA(b1-6)Gal = target: GlcA(b1-6)Gal
Procedure, shortened: as §1

[2] = target: GlcNAc(a1-3)Gal(b1-4)GlcNAc
Procedure, shortened: as §1

[3] = target: GlcNAc(a1-4)Gal(b1-3)GlcNAc
Procedure, shortened: as §1

[4] = target: GlcNAc(a1-4)Gal(b1-4)GalNAc
Procedure, shortened: as §1

[5] = target: GlcNAc(a1-4)Gal(b1-4)GlcNAc
Procedure, shortened: as §1

[6] = target: GlcNAc(a1-4)Gal(b1-4)GlcNAc(b1-3)Gal(b1-4)Glc
Procedure, shortened: as §1

[7] = target: GlcNAc(a1-4)Gal(b1-4)GlcNAc(b1-3)Gal(b1-4)GlcNAc
Procedure, shortened: as §1

[8] = target: GlcNAc(a1-4)Gal(b1-4)GlcNAc(b1-3)Gal(b1-4)GlcNAc(b1-3)Gal(b1-4)GlcNAc
Procedure, shortened: as §1

[9] = target: GlcNAc(a1-4)Gal(b1-4)GlcNAc(b1-3)Gal(b1-4)[Fuc(a1-3)]GlcNAc(b1-3)Gal(b1-4)[Fuc(a1-3)]GlcNAc
Procedure, shortened: as §1

[10] = target: GlcNAc(a1-6)Gal(b1-4)GlcNAc
Procedure, shortened: as §1

[11] = target: GlcNAc(b1-2)Gal(b1-3)GalNAc
Procedure, shortened: as §1

[12] = target: GlcNAc(b1-2)Man(a1-3)[GlcNAc(b1-2)Man(a1-6)]Man(b1-4)GlcNAc(b1-4)GlcNAc
Procedure, shortened: as §1

[13] = target: GlcNAc(b1-2)Man(a1-3)[GlcNAc(b1-2)Man(a1-6)]Man(b1-4)GlcNAc(b1-4)[Fuc(a1-6)]GlcNAc
Procedure, shortened: as §1

[14] = target: GlcNAc(b1-2)Man(a1-3)[GlcNAc(b1-4)][GlcNAc(b1-2)Man(a1-6)]Man(b1-4)GlcNAc(b1-4)GlcNAc
Procedure, shortened: as §1

[15] = target: GlcNAc(b1-2)[GlcNAc(b1-4)]Man(a1-3)[GlcNAc(b1-2)Man(a1-6)]Man(b1-4)GlcNAc(b1-4)GlcNAc
Procedure, shortened: as §1

[16] = target: GlcNAc(b1-2)[GlcNAc(b1-4)]Man(a1-3)[GlcNAc(b1-4)][GlcNAc(b1-2)Man(a1-6)]Man(b1-4)GlcNAc(b1-4)GlcNAc
Procedure, shortened: as §1

[17] = target: GlcNAc(b1-2)[GlcNAc(b1-4)]Man(a1-3)[GlcNAc(b1-4)][GlcNAc(b1-2)[GlcNAc(b1-6)]Man(a1-6)]Man(b1-4)GlcNAc(b1-4)GlcNAc
Procedure, shortened: as §1

[18] = target: GlcNAc(b1-2)[GlcNAc(b1-6)]Man(a1-6)[GlcNAc(b1-2)Man(a1-3)]Man(b1-4)GlcNAc(b1-4)GlcNAc
Procedure, shortened: as §1

[19] = target: GlcNAc(b1-2)[GlcNAc(b1-6)]Man(a1-6)[GlcNAc(b1-2)Man(a1-3)][GlcNAc(b1-4)]Man(b1-4)GlcNAc(b1-4)GlcNAc
Procedure, shortened: as §1

GlcNAc(b1-3)Gal = target: GlcNAc(b1-3)Gal
Procedure, shortened: as §1

[20] = target: GlcNAc(b1-3)Gal(b1-3)GalNAc
Procedure, shortened: as §1

GlcNAc(b1-3)Gal(b1-4)Glc = target: GlcNAc(b1-3)Gal(b1-4)Glc
Procedure, shortened: as §1

[21] = target: GlcNAc(b1-3)Gal(b1-4)GlcNAc
Procedure, shortened: as §1

[22] = target: GlcNAc(b1-3)Gal(b1-4)GlcNAc(b1-3)Gal(b1-4)GlcNAc
Procedure, shortened: as §1

GlcNAc(b1-3)GalNAc = target: GlcNAc(b1-3)GalNAc
Procedure, shortened: as §1

GlcNAc(b1-3)Man = target: GlcNAc(b1-3)Man
Procedure, shortened: as §1

[23] = target: GlcNAc(b1-3)[GlcNAc(b1-4)][GlcNAc(b1-6)]GlcNAc
Procedure, shortened: as §1

[24] = target: GlcNAc(b1-3)[GlcNAc(b1-6)]Gal(b1-4)GlcNAc
Procedure, shortened: as §1

[25] = target: GlcNAc(b1-3)[GlcNAc(b1-6)]GalNAc
Procedure, shortened: as §1

[26] = target: GlcNAc(b1-4)Gal(b1-4)GlcNAc
Procedure, shortened: as §1

GlcNAc(b1-4)GlcNAc = target: GlcNAc(b1-4)GlcNAc
Procedure, shortened: as §1

[27] = target: GlcNAc(b1-4)GlcNAc(b1-4)GlcNAc
Procedure, shortened: as §1

[28] = target: GlcNAc(b1-4)GlcNAc(b1-4)GlcNAc(b1-4)GlcNAc(b1-4)GlcNAc
Procedure, shortened: as §1

[29] = target: GlcNAc(b1-4)GlcNAc(b1-4)GlcNAc(b1-4)GlcNAc(b1-4)GlcNAc(b1-4)GlcNAc
Procedure, shortened: as §1

[30] = target: GlcNAc(b1-4)[GlcNAc(b1-6)]GalNAc
Procedure, shortened: as §1

B1: Gal 2 (Canis lupus) (protein)
chain: MSGKFEVMNMDMKLGGTLKIKGKIAGDADGFVINLGQGSDKLNLHFNPRFHESVIVCNSRNWGQEQRDKHMCFSPGSEVKFTVTFENDGFKVKLPDGHQLTFPNRLGHSHLSYLGVQGGLKVSSFKIE
glycan array binding signal (z-score) (GalNAc(b1-3)GalNAc): -0.112 | glycan array binding signal (z-score) (GalNAc(b1-4)GlcNAc): -0.029 | glycan array binding signal (z-score) [1]: -0.255 | glycan array binding signal (z-score) (GalNAc(b1-6)GalNAc): -0.102 | glycan array binding signal (z-score) (Glc(a1-4)Glc): 0.122 | glycan array binding signal (z-score) (Glc(a1-6)Glc(a1-6)Glc): 0.472 | glycan array binding signal (z-score) (Glc(b1-4)Glc): -0.166 | glycan array binding signal (z-score) (Glc(b1-6)Glc): -0.007 | glycan array binding signal (z-score) (GlcA(b1-3)Gal): -0.362 | glycan array binding signal (z-score) (GlcA(b1-3)GlcNAc): 2.91 | glycan array binding signal (z-score) (GlcA(b1-6)Gal): -0.164 | glycan array binding signal (z-score) [2]: -0.148 | glycan array binding signal (z-score) [3]: -0.223 | glycan array binding signal (z-score) [4]: -0.278 | glycan array binding signal (z-score) [5]: -0.171 | glycan array binding signal (z-score) [6]: 0.112 | glycan array binding signal (z-score) [7]: -0.169 | glycan array binding signal (z-score) [8]: -0.339 | glycan array binding signal (z-score) [9]: 1.2 | glycan array binding signal (z-score) [10]: 0.101 | glycan array binding signal (z-score) [11]: -0.002 | glycan array binding signal (z-score) [12]: -0.253 | glycan array binding signal (z-score) [13]: 0.141 | glycan array binding signal (z-score) [14]: -0.36 | glycan array binding signal (z-score) [15]: 0.058 | glycan array binding signal (z-score) [16]: -0.291 | glycan array binding signal (z-score) [17]: -0.369 | glycan array binding signal (z-score) [18]: -0.097 | glycan array binding signal (z-score) [19]: -0.227 | glycan array binding signal (z-score) (GlcNAc(b1-3)Gal): -0.033 | glycan array binding signal (z-score) [20]: 0.046 | glycan array binding signal (z-score) (GlcNAc(b1-3)Gal(b1-4)Glc): 0.133 | glycan array binding signal (z-score) [21]: 0.04 | glycan array binding signal (z-score) [22]: -0.183 | glycan array binding signal (z-score) (GlcNAc(b1-3)GalNAc): -0.18 | glycan array binding signal (z-score) (GlcNAc(b1-3)Man): -0.104 | glycan array binding signal (z-score) [23]: -0.393 | glycan array binding signal (z-score) [24]: 0.027 | glycan array binding signal (z-score) [25]: -0.1 | glycan array binding signal (z-score) [26]: -0.288 | glycan array binding signal (z-score) (GlcNAc(b1-4)GlcNAc): 0.206 | glycan array binding signal (z-score) [27]: -0.331 | glycan array binding signal (z-score) [28]: -0.405 | glycan array binding signal (z-score) [29]: -0.021 | glycan array binding signal (z-score) [30]: -0.114
